The whole screen tested about 420,000 compounds, of which about 64,000 (15%) were called active. Inconclusive results, whose numbers are uncertain, are shown with a selection of clear calls. The call rests on the fitted dose curve; in most records, active means well fitted inhibition curve with a large enough effect; inconclusive means small, poorly fitted or top-dose-only effect; inactive means flat fitted curve, though single readings scatter. No potency is given beside an inconclusive call; the fits are too rough.
experiment: qHTS for Inhibitors of human tyrosyl-DNA phosphodiesterase 1 (TDP1): qHTS in cells in absence of CPT; details: DT40 Tdp1-/- hTDP1 cells, no CPT, ATP luminescence, 48 h; activity change, negative = growth inhibition: at 46.2 µM (top of the series); further: nearly all actives have a fitted effect of over 55% in size
Summary of the method: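 Chicken DT40 Tdp1-/- cells complemented with human TDP1, screened without camptothecin (DMSO vehicle only), 400 cells/well. Compounds pin-transferred, cells incubated at 37 °C for at least 48 hr. Growth read as ATP-dependent luminescence (CellTiter-Glo, 30 min at RT).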
On the % scale 0 is the no-effect control and ±100 the full control effect; potency means the concentration at half of the fitted maximal effect; tags describe the fitted curve by direction and shape.

Structure (SMILES) | activity change, negative = growth inhibition | Potency
CSc1ncc(C(=O)Nc2ccccc2F)c(-c2ccccc2)n1 | inactive: 0.263% | –
C=CCN1c2ccccc2[C@]23C[C@@H](C(=O)OC)N(C(=O)c4ccco4)C2=NC(C(=O)OC)=C(C(=O)OC)[C@H]13 | – | inconclusive [inhibitor, single point]
Fc1ccccc1-c1nc(NC2CCCC2)c2ccccc2n1 | inactive: -23.6% | –
CCCCCCNCc1ccc(Br)cc1 | – | inconclusive [inhibitor, single point]
O=C(c1ccccc1)C(O)(CN1CCCCC1)c1ccccc1 (stereo unspecified) | – | inconclusive [inhibitor, single point]
Cc1noc(C)c1COc1ccccc1C(=O)N(C)Cc1ccco1 | – | inconclusive [inhibitor, single point]
CCN1C(=O)C(O)(c2c(C)[nH]c3ccccc23)c2ccccc21 (stereo unspecified) | – | inconclusive [inhibitor, single point]
Cc1oc2ncn(C)c(=O)c2c1C(=O)N(C)c1ccccc1F | inactive: 11.6% | –
CC(C)C[C@H]1CN=C(Nc2ccccc2)N1CCCCc1ccccc1 | – | inconclusive [inhibitor, single point]
COC(=O)c1ccc(CSc2nnc(C)s2)cc1 | – | active: 10.3 µM
C1=CC2=NC34CCCCC3CC3=C(CCCC3)N4C2=CC1=NC1CCCCC1 (stereo unspecified) | – | active: 5.17 µM
CCCCNC(=O)c1sc2nc(C)cc(COC)c2c1-n1cccc1 | – | active: 25.9 µM
CC(C)CCOP(=O)(c1ccccc1)c1ccccc1 | – | inconclusive [inhibitor, single point]
CC(C)Oc1ccc(S(=O)(=O)N2CCOCC2)cc1NC(=O)CN1C(=O)NC2(CCCC2)C1=O | inactive: 1.69% | –
O=C(COC(=O)C1=Cc2ccccc2OC1)NCc1ccccc1 | – | inconclusive [inhibitor, single point]
Cc1nnsc1-c1onc(C)c1C(=O)Nc1cc(Cl)cc(Cl)c1 | inactive: -101% | –
O=[N+]([O-])c1cccc(S(=O)(=O)NCCOc2cccc3cccnc23)c1 | – | inconclusive [inhibitor, single point]
CCOc1ccc(CN2CCN(CCCc3ccccc3)CC2CCO)cc1 (stereo unspecified) | – | inconclusive [inhibitor, single point]

Structure (SMILES) | activity change, negative = growth inhibition | Potency
CCOC(=O)N1CCC(NC(=O)c2cnn(-c3cccc(C)c3)c2-n2cccc2)CC1 | – | active: 18.4 µM
c1ccc(-c2nc(NC3CCCC3)c3ccccc3n2)cc1 | inactive: -26.3% | –
COCc1c(C(=O)N/N=C(/C)c2cccs2)nnn1-c1nonc1N | inactive: 31.1% | –
Cc1cccc(C)c1NC(=O)C(c1ccccc1)N1CCN(C/C=C/c2ccccc2)CC1 (stereo unspecified) | – | inconclusive [inhibitor, single point]
COc1nccc(C(F)(F)F)c1C(=O)Nc1ccc(Cl)cc1 | – | inconclusive [inhibitor, partial curve]
COC(=O)c1ccc(OC)c(CN2CCCN(Cc3cc(C)ccc3C)S2(=O)=O)c1 | – | inconclusive [inhibitor, single point]
CC/C(=N\NC(=O)c1cc(C)oc1C)c1ccc(OC(F)F)cc1 | – | inconclusive [inhibitor, single point]
Cn1cc[nH]c1=S | – | inconclusive [inhibitor, single point]
O=C(N/N=C/c1cc(Cl)cc([N+](=O)[O-])c1O)c1cccc(S(=O)(=O)N2CCOCC2)c1 | – | inconclusive [inhibitor, single point]
CC1Sc2ccc(S(=O)(=O)CCC(=O)NCc3ccc(Cl)cc3)cc2NC1=O (stereo unspecified) | – | inconclusive [inhibitor, single point]
C=CCn1cccc(C(=O)Nc2ccc(OCC)cc2)c1=O | inactive: 9.4% | –
CCOC(=O)c1sc(-c2ccc(OC)cc2)cc1NC(C)=O | – | inconclusive [inhibitor, single point]
Cc1oc2ncn(CC(C)C)c(=O)c2c1C(=O)Nc1ccc(Cl)cn1 | inconclusive: -30.7% [inhibitor] | –
O=c1c2ccccc2ncn1CCOCCOc1ccc([N+](=O)[O-])cc1 | – | inconclusive [inhibitor, single point]
C=CCn1c(=N)n(CC(=O)c2ccc(Br)s2)c2ccccc21 | – | active: 18.4 µM
CCCc1nc2c(sc3nc4c(cc32)COC(C)(C)C4)c(=O)n1CCN(CC)CC | – | inconclusive [inhibitor, single point]
CC(C)N(C(=O)COC(=O)c1cncc(Br)c1)C(C)C | – | inconclusive [inhibitor, single point]
CC1CC2=C(NC(=S)NC2c2cccc(F)c2)/C(=C/c2cccc(F)c2)C1 (stereo unspecified) | – | active: 16.4 µM

From PubChem BioAssay AID686978 (National Center for Advancing Translational Sciences (NCATS), 2013)
